{"source": "ChEMBL document CHEMBL4888484", "about": "“Replenishing the malaria drug discovery pipeline: Screening and hit evaluation of the MMV Hit Generation Library 1 (HGL1) against asexual blood stage Plasmodium falciparum ,using a nano luciferase reporter read-out” (2022)", "note": "About 540 (0.36%) of roughly 150,000 compounds showed an effect of 50% or more. The list shows a part of the results."}
{"tested_on": "Plasmodium falciparum", "assay": "Primary screen in NF54 nanoGlo assay, in single point, at 2uM, 72h; a lower Z score goes with more inhibition", "format": "functional, Erythrocyte", "conditions": "timepoint 72 hour", "units": {"% Inhibition": "%"}}
{"smiles": "CN(C)c1nccc(N(C)C[C@H]2CCOC2)n1", "% Inhibition": 8, "Z score": -1.12}
{"smiles": "CCc1noc(-c2[nH]c3ccccc3c2C(=O)C(=O)N(C)C)c1C", "% Inhibition": -7, "Z score": 0.91}
{"smiles": "COc1ccc(NC(=O)N2CC[C@H](Cc3noc(C4CC4)n3)C2)cc1", "% Inhibition": 0, "Z score": -0.06}
{"smiles": "CCC1CN(CCc2ccccn2)CCN1CC(C)O", "note": "(stereo not given)", "% Inhibition": -5, "Z score": 0.77}
{"smiles": "Cc1csc(-c2cc(S(=O)(=O)NCC3CC3)cn2CC(=O)N2CCCCC2)n1", "% Inhibition": -7, "Z score": 0.93}
{"smiles": "Cc1ccc(-c2ccc(C(=O)NCCc3ncnn3C)cc2)cc1C", "% Inhibition": -13, "Z score": 1.28}
{"smiles": "CCCS(=O)(=O)Nc1ccc(S(=O)(=O)N[C@H]2CC(=O)N(C)C2=O)cc1F", "% Inhibition": -15, "Z score": 1.71}
{"smiles": "O=C(Cc1ccc(Cl)cc1)N1CCO[C@]2(CCS(=O)(=O)C2)C1", "% Inhibition": -12, "Z score": 1.76}
{"smiles": "CCc1c(C)nc(C)nc1N1CCN(C)[C@]2(CCC(=O)N(CC)CC2)C1", "% Inhibition": -2, "Z score": 0.3}
{"smiles": "FC(F)c1cc(C(F)F)n2nc(-c3nnc(-c4ccccc4)o3)cc2n1", "% Inhibition": 3, "Z score": -0.39}
{"smiles": "Clc1ccc(Cl)c(-c2cn(CCc3ccncc3)nn2)c1", "% Inhibition": -14, "Z score": 2.75}
{"smiles": "O=C1CCCN1c1ccc(NC2CCN(CC(F)F)CC2)cc1", "% Inhibition": -3, "Z score": 0.43}
{"smiles": "COc1cccc(Oc2nc(N3CCN(C)CC3)nc3c2CN(C(=O)c2ccc(C(F)(F)F)cc2)CC3)c1", "% Inhibition": -6, "Z score": 1.13}
{"smiles": "Cc1cnn(CCNCc2csc(C3CCCC3)n2)c1", "% Inhibition": 2, "Z score": -0.27}
{"smiles": "COc1cc(OC)c(N2CC(C(=O)NC(c3ccccc3OC)c3nccn3C)CC2=O)cc1Cl", "note": "(stereo not given)", "% Inhibition": -3, "Z score": 0.33}
{"smiles": "FC1(F)C[C@@]12CCN(Cc1nc3c(o1)CCCC3)C2", "% Inhibition": 10, "Z score": -1}
{"smiles": "CCn1cc(CN(C)C(=O)c2ncoc2C2CC2)cn1", "% Inhibition": -16, "Z score": 2.08}
{"smiles": "Cc1cc2n(n1)[C@H](C(F)(F)F)CCN2C(=O)c1ccc2ncsc2c1", "% Inhibition": -3, "Z score": 0.42}
{"smiles": "CC(C)N(CC(=O)Nc1ccccc1)C1CCOCC1", "% Inhibition": -15, "Z score": 1.33}
{"smiles": "Cc1ccccc1C(=O)NCCn1ccnc1-c1cccnc1", "% Inhibition": 21, "Z score": -2.76}
{"smiles": "CCCCCN(C(=O)Cc1ccc(O)cc1)C(C)C", "% Inhibition": -16, "Z score": 2.14}
{"smiles": "CC(=O)N[C@@H](C)C(=O)NCC1Cc2cc(C)cc(-c3nc4ccccc4s3)c2O1", "note": "(stereo not given in full)", "% Inhibition": 0, "Z score": 0.02}
{"smiles": "CN(C)c1ccc(CN2CCC3(CC2)NC(=O)c2ccccc2N3)cc1", "% Inhibition": -5, "Z score": 0.64}
{"smiles": "CN(C)c1nc(N)nc(CN2CCC3(CCCCC3)C2)n1", "% Inhibition": -15, "Z score": 1.49}
{"smiles": "Cc1ccc(CNC(=O)[C@H]2CCN(c3ccc(C(F)(F)F)cn3)C2)s1", "% Inhibition": -16, "Z score": 1.53}
{"smiles": "Cn1nncc1CNC(=O)N1CCC[C@H]1COc1ccc(F)cc1", "% Inhibition": 1, "Z score": -0.17}
{"smiles": "CCCCN(C)C[C@H](C)NC1CCC2(CC1)C(=O)Nc1ccccc12", "note": "(stereo not given in full)", "% Inhibition": -7, "Z score": 1.13}
{"smiles": "O=C(c1ccc(O)nc1)N1CCC(Cc2cccc(F)c2F)CC1", "% Inhibition": -6, "Z score": 0.73}
{"smiles": "O=S(=O)(c1ccc(Oc2ccc(-c3nnco3)cc2)nc1)N1CCOCC1", "% Inhibition": -2, "Z score": 0.33}
{"smiles": "O=S(=O)(c1ccc(OCC2CC2)cc1)N1CCCC1", "% Inhibition": 5, "Z score": -0.62}
{"smiles": "Cc1ccccc1CNc1nc(N2CCC(N3CCCCC3)CC2)nc2c1cnn2C", "% Inhibition": 11, "Z score": -2.07}
{"smiles": "CS(=O)(=O)CC1(NCc2ccc(F)cc2)COC1", "% Inhibition": -7, "Z score": 0.69}
{"smiles": "CC[C@H](C)C(=O)N(CCc1ccc(S(N)(=O)=O)cc1)S(C)(=O)=O", "% Inhibition": -2, "Z score": 0.33}
{"smiles": "COCCN(C)S(=O)(=O)c1ccc(C#N)cc1N1CC[C@H](O)C1", "% Inhibition": -3, "Z score": 0.32}
{"smiles": "CCN(C)S(=O)(=O)N[C@H]1CCCc2nc(N3CCC(CO)CC3)ncc21", "% Inhibition": -11, "Z score": 1}
{"smiles": "Cc1cccc(NC(=O)CN2CCN(c3cccc(Cl)c3)C2=O)n1", "% Inhibition": 2, "Z score": -0.23}
{"smiles": "CC[C@H]1CN(c2ncnc3c2CCC3)CCN1C(C)C", "% Inhibition": -2, "Z score": 0.29}
{"smiles": "CC(C)Cc1ncc2c(n1)CN(c1nnnn1[C@@H](C)c1ccccc1)C2", "% Inhibition": -5, "Z score": 0.79}
{"smiles": "NS(=O)(=O)c1ccc(F)c(Cl)c1", "% Inhibition": -16, "Z score": 1.86}
{"smiles": "COCC1(C(=O)NC2CCCC(C(=O)N(C)C)C2)CCC1", "note": "(stereo not given)", "% Inhibition": -3, "Z score": 0.32}
{"smiles": "CCn1cc(NC(=O)C2CCN(C(=O)[C@@](C)(CC)CNC(=O)OC(C)(C)C)CC2)cn1", "% Inhibition": -14, "Z score": 1.27}
{"smiles": "Cc1ccc(C)c(C2CN(C(=O)c3snnc3C)C(C)CO2)c1", "note": "(stereo not given)", "% Inhibition": -16, "Z score": 2.03}
{"smiles": "O=C(Nc1cccc2c1N(C(=O)C(F)(F)F)CCC2)C(F)(F)F", "% Inhibition": -9, "Z score": 1.27}
{"smiles": "CC(C)N(Cc1ccccc1)C(=O)Nc1cccn(C)c1=O", "% Inhibition": -3, "Z score": 0.46}
{"smiles": "O=C(Nc1ccc(N2CCCC2=O)c(F)c1)[C@@H]1CCCO1", "% Inhibition": -6, "Z score": 1.08}
{"smiles": "CCN(CC)[C@H]1CCN(c2ncc(C(F)(F)F)s2)C1", "% Inhibition": -7, "Z score": 1.08}
{"smiles": "COCCNC(=O)CC1CCN(C(=O)c2nnc(C(=O)Nc3cccc(Cl)c3)s2)CC1", "% Inhibition": -29, "Z score": 2.56}
{"smiles": "CCC[C@](C)(NC(=O)OCc1ccccc1)C(=O)O", "% Inhibition": -13, "Z score": 1.73}
{"smiles": "CCOc1ccc(CNC(=O)C2CCCN(S(=O)(=O)N3CC(C)CC(C)C3)C2)cc1OC", "note": "(stereo not given)", "% Inhibition": -6, "Z score": 0.99}
{"smiles": "CC(C)(C)c1cc2cccnc2n1Cc1ccc(Cl)cc1Cl", "% Inhibition": -9, "Z score": 1.32}
{"smiles": "Cc1nn(C)c(Cl)c1CN1CCC[C@H](CCC(=O)N2CCN(C)CC2)C1", "% Inhibition": -3, "Z score": 0.38}
{"smiles": "Cc1cccc(NC(=O)[C@H]2CCCN(c3nc4c(s3)c(C)nn4-c3ccccc3)C2)c1C", "% Inhibition": -7, "Z score": 0.96}
{"smiles": "O=C(NCc1noc(CCc2ccccc2)n1)c1ccccc1Br", "% Inhibition": -1, "Z score": 0.08}
{"smiles": "CN(C)c1noc(COC(=O)CCc2ccccc2Cl)n1", "% Inhibition": 0, "Z score": -0.05}
{"smiles": "Cc1ccc(-c2cc(C(=O)N3CCN(c4ncccn4)CC3)c(C)[nH]2)cc1", "% Inhibition": -14, "Z score": 2.35}
{"smiles": "C[C@](C#N)(NC(=O)Cn1cc(C#N)cn1)C1CC1", "% Inhibition": -2, "Z score": 0.4}
{"smiles": "Cc1cccc(OCC(=O)Nc2nc3c(s2)C(=O)NCCC3)c1", "% Inhibition": -4, "Z score": 0.8}
{"smiles": "N#Cc1ccc(CN2CCC(N3CCC[C@H](C(=O)N4CCCC4)C3)CC2)cc1", "% Inhibition": -17, "Z score": 2.2}
{"smiles": "C[C@@H](c1ccccc1)n1ccc(NCc2ccncc2)n1", "% Inhibition": -9, "Z score": 1.46}
{"smiles": "O=C(CC[C@H]1CCCN(Cc2sc3ccccc3c2Cl)C1)N1CCCC1", "% Inhibition": -20, "Z score": 2.8}
{"smiles": "O=C(NCc1ccc(F)cc1)c1cn2c(n1)CCCC2", "% Inhibition": -9, "Z score": 1.41}
{"smiles": "O=C(CN1CCC[C@H]1c1nc2ccccc2s1)Nc1ccccc1Cc1ccccc1", "% Inhibition": 28, "Z score": -3.23}
{"smiles": "Cc1noc(C)c1S(=O)(=O)N1CCC[C@H]1C(=O)NC(c1ccccc1)c1ccccc1", "% Inhibition": -16, "Z score": 2.31}
{"smiles": "Cc1c(S(=O)(=O)N2CCC[C@H]2c2nc(N(C)C)no2)c2ccccc2n1C", "% Inhibition": -5, "Z score": 1.02}
{"smiles": "COCCOCC(=O)N1C[C@@H]2CC[C@H]1CN(Cc1ccccc1)C2", "% Inhibition": -2, "Z score": 0.25}
{"smiles": "C[C@H]1CCN(C(=O)c2ccc(S(C)(=O)=O)cc2)[C@@H](C)C1", "% Inhibition": -13, "Z score": 1.57}
{"smiles": "COc1ccccc1N1CCN(C(=O)c2noc(-c3ccc(C)cc3)n2)CC1", "% Inhibition": -13, "Z score": 1.19}
{"smiles": "Cn1cc(CNC(=O)[C@H]2CCC(=O)N(C3CC3)[C@@H]2c2ccncc2)cn1", "% Inhibition": -13, "Z score": 1.81}
{"smiles": "Cc1nc2cc(NC(=O)c3ccccc3OC[C@H]3CCCO3)ccc2o1", "% Inhibition": -14, "Z score": 2.18}
{"smiles": "O=C1C[C@@H](C(=O)N2CCCCCC2)Cc2nc(NC(=O)C3CCC3)sc21", "% Inhibition": -12, "Z score": 1.33}
{"smiles": "CCCCNC(=O)c1cccnc1Oc1cccc(NS(=O)(=O)c2ccc(F)cc2)c1", "% Inhibition": 3, "Z score": -0.49}
{"smiles": "CC(C)c1noc(CNC(=O)CCN2CCCCCCC2)n1", "% Inhibition": 0, "Z score": -0.02}
{"smiles": "CC1(CO)CC(O)CN1C(=O)Nc1ccc2c(c1)OCCO2", "note": "(stereo not given)", "% Inhibition": -9, "Z score": 1.71}
{"smiles": "C[C@]1(F)CCCN(CC(=O)N2CCC2)C1", "% Inhibition": -3, "Z score": 0.35}
{"smiles": "CCCC1CC(C(=O)N2CCC(n3cnc(C(N)=O)c3N)CC2)CCO1", "note": "(stereo not given)", "% Inhibition": -16, "Z score": 1.76}
{"smiles": "Cc1ncsc1CNC(=O)[C@H]1CCN(c2ccccc2)C1", "% Inhibition": -6, "Z score": 1.12}
{"smiles": "C#Cc1cccnc1N1CC(C)OC(C2CC2)C1", "note": "(stereo not given)", "% Inhibition": -4, "Z score": 0.52}
{"smiles": "O=C(C1CCCCN1)N1CCCC(C(F)(F)F)C1", "note": "(stereo not given)", "% Inhibition": -2, "Z score": 0.26}
{"smiles": "CS(=O)(=O)N1CCC(C(=O)N(Cc2ccccc2)c2ccccc2)CC1", "% Inhibition": -8, "Z score": 1.24}
{"smiles": "Cn1ccc([C@H]2CCCN(S(=O)(=O)c3ccc(F)c(Cl)c3)C2)n1", "% Inhibition": -14, "Z score": 1.59}
{"smiles": "CC(C)CCN(Cc1cccc(C#N)c1)Cc1cccn1Cc1ccc(F)cc1", "% Inhibition": -5, "Z score": 0.55}
{"smiles": "O=C(Nc1cccc(-c2cc3ccccc3[nH]2)c1)NC1CCCC1", "% Inhibition": 2, "Z score": -0.22}
{"smiles": "Cc1cc(CS(=O)(=O)[C@@H](C)c2nc(C)no2)on1", "% Inhibition": 1, "Z score": -0.12}
{"smiles": "CCN(CC)c1nc2cc(C(=O)NC3CC3)ccc2c(=O)n1Cc1ccc(C)cc1", "% Inhibition": -8, "Z score": 1.56}
{"smiles": "COc1cccc(OC2CN(Cc3ccc(F)cc3Cl)C2)c1", "% Inhibition": -12, "Z score": 2.34}
